# Measurements as given in the supplement of paper PMC8728848.
# Some of the results follow.
# B1: CAA (Caragana arborescens) (protein)
# chain: VAVEFDTFDNPDWDPRTKHIGIDVNSIRSNKTTQWGFWNRQVADVDISYEASSKTLNVSLYYPGESYIVTDVVDLKDILPEWVRIGF
# Key:
# Experiment in all cases: glycan array binding signal (z-score within array); higher = stronger binding
# Details in all cases: glycan notation: IUPAC condensed, linker removed
# Neu5Ac(a2-3)Gal = target: Neu5Ac(a2-3)Gal
# In short: (§1)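 Glycan array data came from 3228 arrays in the Consortium for Functional Glycomics database, and only arrays with an available protein sequence were kept. Glycan names were put into IUPAC-condensed notation, and columns mapping to the same glycan were averaged. The binding signal is a within-array Z-score, averaged across arrays of one protein sequence run at different concentrations or buffers and across linkers. A negative Z-score can be read as non-binding.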
# [1] = target: Neu5Ac(a2-3)Gal(b1-3)GalNAc
# In short: as §1
# [2] = target: Neu5Ac(a2-3)Gal(b1-3)GalNAc(b1-3)Gal(a1-4)Gal(b1-4)Glc
# In short: as §1
# [3] = target: Neu5Ac(a2-3)Gal(b1-3)GalNAc(b1-4)[Neu5Ac(a2-3)]Gal(b1-4)Glc
# In short: as §1
# [4] = target: Neu5Ac(a2-3)Gal(b1-3)GalNAc(b1-4)[Neu5Ac(a2-8)Neu5Ac(a2-3)]Gal(b1-4)Glc
# In short: as §1
# [5] = target: Neu5Ac(a2-3)Gal(b1-3)GalNAc6S
# In short: as §1
# [6] = target: Neu5Ac(a2-3)Gal(b1-3)GlcNAc
# In short: as §1
# [7] = target: Neu5Ac(a2-3)Gal(b1-3)GlcNAc(b1-2)Man
# In short: as §1
# [8] = target: Neu5Ac(a2-3)Gal(b1-3)GlcNAc(b1-2)Man(a1-3)[GlcNAc(b1-4)][Neu5Ac(a2-3)Gal(b1-3)GlcNAc(b1-2)Man(a1-6)]Man(b1-4)GlcNAc(b1-4)GlcNAc
# In short: as §1
# [9] = target: Neu5Ac(a2-3)Gal(b1-3)GlcNAc(b1-2)Man(a1-3)[Neu5Ac(a2-3)Gal(b1-3)GlcNAc(b1-2)Man(a1-6)]Man(b1-4)GlcNAc(b1-4)GlcNAc
# In short: as §1
# [10] = target: Neu5Ac(a2-3)Gal(b1-3)GlcNAc(b1-3)Gal(b1-3)GlcNAc
# In short: as §1
# [11] = target: Neu5Ac(a2-3)Gal(b1-3)GlcNAc(b1-3)Gal(b1-4)GlcNAc
# In short: as §1
# [12] = target: Neu5Ac(a2-3)Gal(b1-3)GlcNAc(b1-3)GalNAc
# In short: as §1
# [13] = target: Neu5Ac(a2-3)Gal(b1-3)GlcNAc(b1-4)Gal(b1-4)Glc
# In short: as §1
# [14] = target: Neu5Ac(a2-3)Gal(b1-3)GlcNAc(b1-6)GalNAc
# In short: as §1
# [15] = target: Neu5Ac(a2-3)Gal(b1-3)GlcNAc6S
# In short: as §1
# [16] = target: Neu5Ac(a2-3)Gal(b1-3)[Fuc(a1-4)]GlcNAc
# In short: as §1
# [17] = target: Neu5Ac(a2-3)Gal(b1-3)[Fuc(a1-4)]GlcNAc(b1-3)Gal(b1-3)[Fuc(a1-4)]GlcNAc
# In short: as §1
# [18] = target: Neu5Ac(a2-3)Gal(b1-3)[Fuc(a1-4)]GlcNAc(b1-3)Gal(b1-4)[Fuc(a1-3)]GlcNAc
# In short: as §1
# [19] = target: Neu5Ac(a2-3)Gal(b1-3)[GlcNAc(b1-6)]GalNAc
# In short: as §1
# [20] = target: Neu5Ac(a2-3)Gal(b1-3)[Neu5Ac(a2-6)]GalNAc
# In short: as §1
# [21] = target: Neu5Ac(a2-3)Gal(b1-3)[Neu5Ac(a2-6)]GlcNAc(b1-3)[Fuc(a1-3)[Gal(b1-4)]GlcNAc(b1-6)]Gal(b1-4)Glc
# In short: as §1
# [22] = target: Neu5Ac(a2-3)Gal(b1-3)]Neu5Ac(a2-3)Gal(b1-4)]GlcNAc
# In short: as §1
# Neu5Ac(a2-3)Gal(b1-4)Glc = target: Neu5Ac(a2-3)Gal(b1-4)Glc
# In short: as §1
# [23] = target: Neu5Ac(a2-3)Gal(b1-4)GlcNAc
# In short: as §1
# [24] = target: Neu5Ac(a2-3)Gal(b1-4)GlcNAc(b1-2)Man
# In short: as §1
# [25] = target: Neu5Ac(a2-3)Gal(b1-4)GlcNAc(b1-2)Man(a1-3)[GlcNAc(b1-4)][Neu5Ac(a2-3)Gal(b1-4)GlcNAc(b1-2)Man(a1-6)]Man(b1-4)GlcNAc(b1-4)GlcNAc
# In short: as §1
# [26] = target: Neu5Ac(a2-3)Gal(b1-4)GlcNAc(b1-2)Man(a1-3)[Neu5Ac(a2-3)Gal(b1-4)GlcNAc(b1-2)Man(a1-6)]Man(b1-4)GlcNAc(b1-4)GlcNAc
# In short: as §1
# [27] = target: Neu5Ac(a2-3)Gal(b1-4)GlcNAc(b1-2)Man(a1-3)[Neu5Ac(a2-3)Gal(b1-4)GlcNAc(b1-2)Man(a1-6)]Man(b1-4)GlcNAc(b1-4)[Fuc(a1-6)]GlcNAc
# In short: as §1
# [28] = target: Neu5Ac(a2-3)Gal(b1-4)GlcNAc(b1-2)Man(a1-3)[Neu5Ac(a2-6)Gal(b1-4)GlcNAc(b1-2)Man(a1-6)]Man(b1-4)GlcNAc(b1-4)GlcNAc
# In short: as §1
# [29] = target: Neu5Ac(a2-3)Gal(b1-4)GlcNAc(b1-2)[Neu5Ac(a2-3)Gal(b1-4)GlcNAc(b1-4)]Man(a1-3)[GlcNAc(b1-4)][Neu5Ac(a2-3)Gal(b1-4)GlcNAc(b1-2)[Neu5Ac(a2-3)Gal(b1-4)GlcNAc(b1-6)]Man(a1-6)]Man(b1-4)GlcNAc(b1-4)GlcNAc
# In short: as §1
# [30] = target: Neu5Ac(a2-3)Gal(b1-4)GlcNAc(b1-2)[Neu5Ac(a2-3)Gal(b1-4)GlcNAc(b1-4)]Man(a1-3)[GlcNAc(b1-4)][Neu5Ac(a2-3)Gal(b1-4)GlcNAc(b1-4)Man(a1-6)]Man(b1-4)GlcNAc(b1-4)GlcNAc
# In short: as §1
# [31] = target: Neu5Ac(a2-3)Gal(b1-4)GlcNAc(b1-2)[Neu5Ac(a2-3)Gal(b1-4)GlcNAc(b1-6)]Man(a1-6)[Neu5Ac(a2-3)Gal(b1-4)GlcNAc(b1-2)Man(a1-3)]Man(b1-4)GlcNAc(b1-4)GlcNAc
# In short: as §1
# [32] = target: Neu5Ac(a2-3)Gal(b1-4)GlcNAc(b1-2)[Neu5Ac(a2-3)Gal(b1-4)GlcNAc(b1-6)]Man(a1-6)[Neu5Ac(a2-3)Gal(b1-4)GlcNAc(b1-2)Man(a1-3)][GlcNAc(b1-4)]Man(b1-4)GlcNAc(b1-4)GlcNAc
# In short: as §1
# [33] = target: Neu5Ac(a2-3)Gal(b1-4)GlcNAc(b1-3)Gal
# In short: as §1
# [34] = target: Neu5Ac(a2-3)Gal(b1-4)GlcNAc(b1-3)Gal(b1-3)GlcNAc
# In short: as §1
# [35] = target: Neu5Ac(a2-3)Gal(b1-4)GlcNAc(b1-3)Gal(b1-4)GlcNAc
# In short: as §1
# [36] = target: Neu5Ac(a2-3)Gal(b1-4)GlcNAc(b1-3)Gal(b1-4)GlcNAc(b1-2)Man(a1-3)[Neu5Ac(a2-3)Gal(b1-4)GlcNAc(b1-3)Gal(b1-4)GlcNAc(b1-2)Man(a1-6)]Man(b1-4)GlcNAc(b1-4)GlcNAc
# In short: as §1
# [37] = target: Neu5Ac(a2-3)Gal(b1-4)GlcNAc(b1-3)Gal(b1-4)GlcNAc(b1-3)Gal(b1-4)GlcNAc
# In short: as §1
# [38] = target: Neu5Ac(a2-3)Gal(b1-4)GlcNAc(b1-3)Gal(b1-4)GlcNAc(b1-3)Gal(b1-4)GlcNAc(b1-2)Man(a1-3)[Neu5Ac(a2-3)Gal(b1-4)GlcNAc(b1-3)Gal(b1-4)GlcNAc(b1-3)Gal(b1-4)GlcNAc(b1-2)Man(a1-6)]GalNAc
# In short: as §1
# [39] = target: Neu5Ac(a2-3)Gal(b1-4)GlcNAc(b1-3)Gal(b1-4)GlcNAc(b1-3)GalNAc
# In short: as §1
# [40] = target: Neu5Ac(a2-3)Gal(b1-4)GlcNAc(b1-3)Gal(b1-4)GlcNAc(b1-3)[Neu5Ac(a2-3)Gal(b1-4)GlcNAc(b1-3)Gal(b1-4)GlcNAc(b1-6)]GalNAc
# In short: as §1
# [41] = target: Neu5Ac(a2-3)Gal(b1-4)GlcNAc(b1-3)Gal(b1-4)GlcNAc(b1-6)[Gal(b1-3)]GalNAc
# In short: as §1
# [42] = target: Neu5Ac(a2-3)Gal(b1-4)GlcNAc(b1-3)Gal(b1-4)[Fuc(a1-3)]GlcNAc
# In short: as §1
# [43] = target: Neu5Ac(a2-3)Gal(b1-4)GlcNAc(b1-3)GalNAc
# In short: as §1
binder,measurement,setting,value
B1,glycan array binding signal (z-score),Neu5Ac(a2-3)Gal,-0.241
same,glycan array binding signal (z-score),[1],-0.244
same,glycan array binding signal (z-score),[2],-0.235
same,glycan array binding signal (z-score),[3],-0.233
same,glycan array binding signal (z-score),[4],-0.247
same,glycan array binding signal (z-score),[5],-0.243
same,glycan array binding signal (z-score),[6],-0.245
same,glycan array binding signal (z-score),[7],-0.219
same,glycan array binding signal (z-score),[8],-0.242
same,glycan array binding signal (z-score),[9],0.175
same,glycan array binding signal (z-score),[10],-0.241
same,glycan array binding signal (z-score),[11],-0.248
same,glycan array binding signal (z-score),[12],-0.246
same,glycan array binding signal (z-score),[13],-0.244
same,glycan array binding signal (z-score),[14],-0.245
same,glycan array binding signal (z-score),[15],-0.214
same,glycan array binding signal (z-score),[16],-0.243
same,glycan array binding signal (z-score),[17],-0.24
same,glycan array binding signal (z-score),[18],-0.242
same,glycan array binding signal (z-score),[19],-0.241
same,glycan array binding signal (z-score),[20],-0.24
same,glycan array binding signal (z-score),[21],-0.243
same,glycan array binding signal (z-score),[22],-0.231
same,glycan array binding signal (z-score),Neu5Ac(a2-3)Gal(b1-4)Glc,-0.24
same,glycan array binding signal (z-score),[23],-0.241
same,glycan array binding signal (z-score),[24],-0.233
same,glycan array binding signal (z-score),[25],-0.248
same,glycan array binding signal (z-score),[26],-0.211
same,glycan array binding signal (z-score),[27],0.32
same,glycan array binding signal (z-score),[28],-0.218
same,glycan array binding signal (z-score),[29],-0.248
same,glycan array binding signal (z-score),[30],-0.243
same,glycan array binding signal (z-score),[31],0.587
same,glycan array binding signal (z-score),[32],-0.246
same,glycan array binding signal (z-score),[33],-0.251
same,glycan array binding signal (z-score),[34],-0.234
same,glycan array binding signal (z-score),[35],-0.243
same,glycan array binding signal (z-score),[36],-0.193
same,glycan array binding signal (z-score),[37],-0.25
same,glycan array binding signal (z-score),[38],-0.092
same,glycan array binding signal (z-score),[39],-0.244
same,glycan array binding signal (z-score),[40],-0.239
same,glycan array binding signal (z-score),[41],-0.242
same,glycan array binding signal (z-score),[42],-0.242
same,glycan array binding signal (z-score),[43],-0.244
